The results in this text go back to PMC4336329 (PLoS ONE, 2015).

Screen size: about 310,000 compounds; about 2,200 (0.71%) showed an effect of 50% or more. The effect is printed as a negative number. The list shows a part of the results.

The target of the assay is human ether-à-go-go-related gene (hERG) potassium channel (human, UniProt Q12809). Kind of assay: primary screen, population patch clamp on CHO cells stably expressing hERG.
Chain of human ether-à-go-go-related gene (hERG) potassium channel (Q12809 whole entry, looked up): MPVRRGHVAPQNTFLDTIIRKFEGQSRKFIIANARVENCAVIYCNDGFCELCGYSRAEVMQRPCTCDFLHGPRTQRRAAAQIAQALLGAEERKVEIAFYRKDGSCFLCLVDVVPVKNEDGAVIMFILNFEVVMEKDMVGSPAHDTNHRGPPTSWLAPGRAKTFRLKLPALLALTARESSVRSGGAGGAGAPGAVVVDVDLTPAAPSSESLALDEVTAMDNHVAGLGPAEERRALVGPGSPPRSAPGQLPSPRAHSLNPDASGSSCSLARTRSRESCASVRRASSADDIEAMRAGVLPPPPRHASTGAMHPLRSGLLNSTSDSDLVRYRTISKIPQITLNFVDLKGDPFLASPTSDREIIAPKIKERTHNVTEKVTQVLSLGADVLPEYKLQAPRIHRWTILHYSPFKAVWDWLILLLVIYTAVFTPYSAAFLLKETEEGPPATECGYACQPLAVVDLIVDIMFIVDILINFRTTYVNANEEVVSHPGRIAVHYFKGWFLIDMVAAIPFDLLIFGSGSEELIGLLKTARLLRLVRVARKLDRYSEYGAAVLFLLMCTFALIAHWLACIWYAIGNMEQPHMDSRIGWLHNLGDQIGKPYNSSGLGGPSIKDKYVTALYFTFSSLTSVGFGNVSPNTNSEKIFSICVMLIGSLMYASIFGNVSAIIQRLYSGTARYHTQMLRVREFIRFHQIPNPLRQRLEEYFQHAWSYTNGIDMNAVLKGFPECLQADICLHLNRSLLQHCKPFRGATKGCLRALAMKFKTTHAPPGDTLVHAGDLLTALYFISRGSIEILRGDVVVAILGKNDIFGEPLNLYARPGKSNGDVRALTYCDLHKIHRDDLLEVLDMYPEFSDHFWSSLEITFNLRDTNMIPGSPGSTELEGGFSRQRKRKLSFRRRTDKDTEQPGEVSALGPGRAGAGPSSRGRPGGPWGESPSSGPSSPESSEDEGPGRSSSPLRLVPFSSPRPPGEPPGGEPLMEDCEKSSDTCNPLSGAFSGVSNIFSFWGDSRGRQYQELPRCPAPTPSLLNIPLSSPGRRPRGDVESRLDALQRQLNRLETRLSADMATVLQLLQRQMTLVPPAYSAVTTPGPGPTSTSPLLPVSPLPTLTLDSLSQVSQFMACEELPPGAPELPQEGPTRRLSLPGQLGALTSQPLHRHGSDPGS
Consider `Cc1cccc(C(=O)N/N=C/c2ccncc2)c1`, for which the “hERG current change (%, negative = inhibition) at 1uM” value stood at 15.4%.

Consider `CCC(OC(=O)c1ccco1)C(=O)NCc1ccc(C)cc1` (centres unmarked), for which the “hERG current change (%, negative = inhibition) at 1uM” value amounted to 12.9%. In the case of `O=c1[nH]c2ccccc2c2nc3ccccn3c12` it was -4.45%; in that of `CCC(=O)Nc1cc(C(=O)O)ccc1Sc1ccc(C)cc1`, 9.26%; in that of `CC(C)(C)OC(=O)NCCCCCNC(=O)c1[nH]cnc1C(=O)N[C@@H](CCCCNC(=O)OC(C)(C)C)C(=O)OC(C)(C)C`, 14.5%. Consider `Cc1cccc2cc(C(c3nnnn3CC3CCCO3)N3CCc4ccccc4C3)c(=O)[nH]c12` (centres unmarked), for which the “hERG current change (%, negative = inhibition) at 1uM” value is recorded as -9.37%. As to `CC1CCCCC1NC(=O)C(Cc1ccccc1)NS(=O)(=O)c1cccs1` (centres unmarked), the “hERG current change (%, negative = inhibition) at 1uM” value came out at 8.52%. The result for `CCOC(=O)CSc1nc2ccc(N)cc2s1` reads -1.93%; that for `CC1CCCCN1C(=O)COC(=O)c1ccc2c(c1)C(=O)N(Cc1ccco1)C2=O` (centres unmarked), -39.9%. In the case of `CCOc1ccc(-n2c(O)c(C=NCCN(CC)CC)c(=O)[nH]c2=O)cc1` it was 16.4%; in that of `CCSc1nnc(NC(=O)C(CC)(C(F)(F)F)C(F)(F)F)s1`, 15%.

For the compound `COc1ccc(-c2noc(CNC(=O)CCCN3C(=O)[C@H]4CC=CC[C@H]4C3=O)n2)cc1`, the “hERG current change (%, negative = inhibition) at 1uM” value amounted to 11.7%.

As for `O=C(CN1C(=O)c2cccnc2Oc2ccc(Cl)cc21)N1CCCC1`, the “hERG current change (%, negative = inhibition) at 1uM” value was found to be 13.5%. Regarding `Cc1ccc2cc(C)c(N3CCC(C)CC3)nc2c1`, the “hERG current change (%, negative = inhibition) at 1uM” value came out at 9.3%.

On to `COc1ccc(OCc2cc(C(=O)NC(C)Cn3cncn3)no2)c(Cl)c1` (centres unmarked), for which the “hERG current change (%, negative = inhibition) at 1uM” value is given as 11.4%. As for `CC(C)(C)C1N=C(c2ccc3ccccc3c2)OC1=O` (centres unmarked), the “hERG current change (%, negative = inhibition) at 1uM” value is recorded as 13.9%. In the case of `COc1ccc(C)cc1Nc1cc(C)nc2ncnn12` it was 10.3%; in that of `CCOC(=O)C1CCN(C(=O)Nc2ccc3snnc3c2)CC1`, 3.17%. The result for `COc1ccc2c(c1OC)C(=O)OC2Nn1cncn1` (centres unmarked) reads 6.85%; that for `Cc1cc2cc(CCNC(=O)CC(C)(C)C)c(=O)[nH]c2cc1C`, 13.3%. In the case of `CCN(CC)c1ccc(C(=O)NNC(=O)CCl)cc1.Cl` it was 10.1%; in that of `CCCn1nnnc1NC(=O)c1ccc(C)cc1Cl`, 8.63%; in that of `c1ccc([C@H]2CN3C(=N2)Sc2ccccc23)cc1`, 11%. Take `COc1ccc(C2NC(C(=O)O)Cc3c2[nH]c2ccccc32)cc1CN1CCN(c2ccc(F)cc2)CC1` (centres unmarked): the “hERG current change (%, negative = inhibition) at 1uM” value stood at 2.03%. The result for `COc1ccc(C(=O)COc2ccc(F)cc2)c(O)c1C` reads 6.69%; that for `COc1ccc(CCC(=O)N2CCCSC2=Nc2ccc(C(C)=O)cc2)cc1`, -0.0389%. `COc1ccc(CNC(=O)C2CCCN(c3nc4ccccc4o3)C2)c(OC)c1` (centres unmarked): the “hERG current change (%, negative = inhibition) at 1uM” value was determined as 0.0528%.

On to `CC1CN(C)C(C)CC1OC(=O)C(c1ccccc1)c1ccccc1` (centres unmarked), for which the “hERG current change (%, negative = inhibition) at 1uM” value was -68.3%. The result for `Cl.OC(COCC1COc2ccccc2O1)CN1CCN(c2ccc(F)cc2)CC1` (centres unmarked) reads -57.6%; that for `CCOC(=O)c1c(C)[nH]c(C(=O)COC(=O)C2CC(=O)N(Cc3ccccc3)C2)c1C` (centres unmarked), 10.2%; that for `COc1ccc(CCNC(=O)c2cc(-c3ccncc3)nc3c(Cl)cccc23)cc1OC`, -19.5%.

For the compound `COc1ccc(-n2nc(C(=O)NCC(=O)NCc3ccccc3OC)c3ccccc3c2=O)c(OC)c1`, the “hERG current change (%, negative = inhibition) at 1uM” value was found to be 16.7%. In the case of `N#Cc1ccc(S(=O)(=O)N2CCN(CC(=O)NCC3(N4CCOCC4)CCCCC3)CC2)cc1` it was 7.46%. In the case of `CS(=O)(=O)c1cnc2c(S(=O)(=O)c3ccccc3)cnn2c1N` it was 9.68%; in that of `COc1ccc(C(=O)NCc2ccc3c(c2)OCO3)cc1S(=O)(=O)N1CCCC1`, 0.876%. The result for `CC1COC(C)(CC(=O)NN2C(=O)c3ccccc3C2=O)O1` (centres unmarked) reads 12.5%; that for `CN(C)C(=O)c1ccc(NC(=O)c2cc(-c3ccco3)nc3ccccc23)cc1`, 5.96%; that for `O=C(CCc1ccccc1)NNC(=O)Nc1ccc(Br)cc1`, -2.97%.

`COc1oc(-c2ccccc2C)nc1C(F)(F)F`: the “hERG current change (%, negative = inhibition) at 1uM” value is 11%.

Take `O=C(NC1CCCC1)C(c1c(F)cccc1Cl)N(C(=O)c1csnn1)C1CC1` (centres unmarked): the “hERG current change (%, negative = inhibition) at 1uM” value is recorded as 14.1%. The result for `Cc1ccc(S(=O)(=O)N(CC(=O)Nc2ccccc2C(=O)O)c2ccc(Cl)cc2)cc1` reads 11.2%; that for `CCN1C=C(Cc2ccc(OC)cc2)C2=C(C1)C(c1ccc(OC)cc1)C(C#N)=C(N)O2` (centres unmarked), -0.657%; that for `CN(CC(=O)Nc1ccccc1Br)CC(=O)Nc1ccccc1-c1ccccc1`, -5.27%. The result for `O=[N+]([O-])c1ccc2nc(NS(=O)(=O)c3ccc(Cl)cc3)sc2c1` reads -3.86%; that for `COC(=O)CCCC(=O)N1CCCC(C(=O)c2ccc(-c3ccccc3)cc2)C1` (centres unmarked), 0.652%.

For `COCCCn1c(SCc2nc3ccccc3c(=O)[nH]2)nc2ccccc2c1=O`, the “hERG current change (%, negative = inhibition) at 1uM” value was 3.04%. As for `C=CCSc1nsc(NC(=O)Nc2ccc(F)cc2)n1`, the “hERG current change (%, negative = inhibition) at 1uM” value turned out to be 18.8%. In the case of `CN(CC(=O)Nc1ccc(S(=O)(=O)N2CCCC2)cc1)Cc1cccc(Cl)c1Cl` it was 7.46%; in that of `COc1ccccc1CNC(=O)COC(=O)c1ccc(S(=O)(=O)N2CCCC2)cc1`, 9.33%; in that of `CCc1cccc(C)c1NC(=O)c1cc(C)oc1C`, 4.7%. The result for `CCCn1c(SCC(=O)Nc2nnc(CC)s2)nnc1-c1ccco1` reads 11.9%; that for `Cc1ccc(-c2cc(C(=O)NCCN3CCOCC3)no2)cc1`, 9.98%; that for `COc1ccc(-c2csc(NC(=O)c3cccc(N4C(=O)CCC4=O)c3)n2)cc1C`, 7.64%. The result for `CCOc1ccc(/C=N/NC(=O)CSc2n[nH]c(=O)[nH]c2=O)cc1OC` reads 8.24%.

`COc1cccc(Oc2cn[nH]c2-c2ccc(OCC(=O)NN)cc2O)c1`: the “hERG current change (%, negative = inhibition) at 1uM” value worked out at 15.7%. In the case of `COc1cccc(-c2nc(CSCC(=O)NCC3CCCO3)c(C)o2)c1` (centres unmarked) it was 8.7%.
